Data on 6 molecules can be found in publication PMC4752459.

Amino acid sequences for entries named in this document (tags omitted).
UniProt Q08972: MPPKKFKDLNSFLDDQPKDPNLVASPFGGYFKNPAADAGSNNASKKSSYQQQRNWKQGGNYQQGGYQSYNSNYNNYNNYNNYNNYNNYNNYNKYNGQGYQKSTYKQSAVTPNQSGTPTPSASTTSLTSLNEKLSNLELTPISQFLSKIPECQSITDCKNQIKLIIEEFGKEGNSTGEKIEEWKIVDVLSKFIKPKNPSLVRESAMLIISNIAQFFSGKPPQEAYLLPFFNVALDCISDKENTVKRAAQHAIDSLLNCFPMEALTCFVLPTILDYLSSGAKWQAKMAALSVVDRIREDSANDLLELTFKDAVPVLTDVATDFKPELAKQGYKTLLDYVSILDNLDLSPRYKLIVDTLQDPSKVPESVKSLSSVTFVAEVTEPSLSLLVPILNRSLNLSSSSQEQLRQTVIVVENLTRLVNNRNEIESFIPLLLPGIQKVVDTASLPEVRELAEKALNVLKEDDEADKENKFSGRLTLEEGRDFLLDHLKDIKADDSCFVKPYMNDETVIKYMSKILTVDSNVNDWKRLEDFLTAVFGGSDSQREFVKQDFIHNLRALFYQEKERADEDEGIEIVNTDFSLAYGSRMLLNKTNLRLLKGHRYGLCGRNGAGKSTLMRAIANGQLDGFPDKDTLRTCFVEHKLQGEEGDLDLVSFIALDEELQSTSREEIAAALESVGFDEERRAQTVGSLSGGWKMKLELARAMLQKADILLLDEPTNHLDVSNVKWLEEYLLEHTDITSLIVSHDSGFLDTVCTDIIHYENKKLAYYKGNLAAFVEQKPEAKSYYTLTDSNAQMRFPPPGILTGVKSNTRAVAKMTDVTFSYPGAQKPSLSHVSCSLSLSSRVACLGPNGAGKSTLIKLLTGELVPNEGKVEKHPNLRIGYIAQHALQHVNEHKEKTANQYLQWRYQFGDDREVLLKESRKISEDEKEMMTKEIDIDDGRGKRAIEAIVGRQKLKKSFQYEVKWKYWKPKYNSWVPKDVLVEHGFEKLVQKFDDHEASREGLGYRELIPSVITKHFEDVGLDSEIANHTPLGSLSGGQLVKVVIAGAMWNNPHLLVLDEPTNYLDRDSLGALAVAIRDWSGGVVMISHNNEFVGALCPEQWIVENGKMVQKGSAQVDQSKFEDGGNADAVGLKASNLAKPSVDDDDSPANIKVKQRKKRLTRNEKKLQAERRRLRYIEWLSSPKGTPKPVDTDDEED
UniProt P38634: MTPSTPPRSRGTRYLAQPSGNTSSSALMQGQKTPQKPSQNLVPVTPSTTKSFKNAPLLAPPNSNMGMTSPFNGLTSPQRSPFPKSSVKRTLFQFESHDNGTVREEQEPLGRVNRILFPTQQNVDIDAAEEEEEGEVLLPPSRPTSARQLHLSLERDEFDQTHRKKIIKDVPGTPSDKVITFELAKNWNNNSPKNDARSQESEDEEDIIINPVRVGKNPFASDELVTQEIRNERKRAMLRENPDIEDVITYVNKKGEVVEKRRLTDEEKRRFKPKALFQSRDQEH
UniProt P32598: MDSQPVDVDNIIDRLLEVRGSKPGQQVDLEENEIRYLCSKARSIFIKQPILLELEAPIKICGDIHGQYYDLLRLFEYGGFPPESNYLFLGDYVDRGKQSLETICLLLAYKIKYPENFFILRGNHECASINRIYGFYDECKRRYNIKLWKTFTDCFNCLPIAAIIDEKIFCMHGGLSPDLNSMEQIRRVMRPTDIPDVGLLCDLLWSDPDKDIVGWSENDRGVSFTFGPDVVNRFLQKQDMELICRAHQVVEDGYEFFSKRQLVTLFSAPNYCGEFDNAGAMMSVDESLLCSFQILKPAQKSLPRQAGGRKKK

These are yes or no findings as the source states them, for the method shown. In cells and extracts the contact can be indirect. Some results given as binding are weak or reduced against the parent protein; the word gives no strength.

B1: Nub-Cse1 (protein, UniProt P33307 1-960)
chain: MSDLETVAKFLAESVIASTAKTSERNLRQLETQDGFGLTLLHVIASTNLPLSTRLAGALFFKNFIKRKWVDENGNHLLPANNVELIKKEIVPLMISLPNNLQVQIGEAISSIADSDFPDRWPTLLSDLASRLSNDDMVTNKGVLTVAHSIFKRWRPLFRSDELFLEIKLVLDVFTAPFLNLLKTVDEQITANENNKASLNILFDVLLVLIKLYYDFNCQDIPEFFEDNIQVGMGIFHKYLSYSNPLLEDPDETEHASVLIKVKSSIQELVQLYTTRYEDVFGPMINEFIQITWNLLTSISNQPKYDILVSKSLSFLTAVTRIPKYFEIFNNESAMNNITEQIILPNVTLREEDVELFEDDPIEYIRRDLEGSDTDTRRRACTDFLKELKEKNEVLVTNIFLAHMKGFVDQYMSDPSKNWKFKDLYIYLFTALAINGNITNAGVSSTNNLLNVVDFFTKEIAPDLTSNNIPHIILRVDAIKYIYTFRNQLTKAQLIELMPILATFLQTDEYVVYTYAAITIEKILTIRESNTSPAFIFHKEDISNSTEILLKNLIALILKHGSSPEKLAENEFLMRSIFRVLQTSEDSIQPLFPQLLAQFIEIVTIMAKNPSNPRFTHYTFESIGAILNYTQRQNLPLLVDSMMPTFLTVFSEDIQEFIPYVFQIIAFVVEQSATIPESIKPLAQPLLAPNVWELKGNIPAVTRLLKSFIKTDSSIFPDLVPVLGIFQRLIASKAYEVHGFDLLEHIMLLIDMNRLRPYIKQIAVLLLQRLQNSKTERYVKKLTVFFGLISNKLGSDFLIHFIDEVQDGLFQQIWGNFIITTLPTIGNLLDRKIALIGVLNMVINGQFFQSKYPTLISSTMNSIIETASSQSIANLKNDYVDLDNLEEISTFGSHFSKLVSISEKPFDPLPEIDVNNGVRLYVAEALNKYNAISGNTFLNTILPQLTQENQVKLNQLLVGN
B2: Nub-Bni5 (protein, UniProt P53890 1-448)
chain: MGLDQDKIKKRLSQIEIDINQMNQMIDENLQLVEPAEDEAVEDNVKDTGVVDAVKVAETALFSGNDGADSNPGDSAQVEEHKTAQVHIPTENEANKSTDDPSQLSVTQPFIAKEQITHTAIAIGDSYNSFVANSAGNEKAKDSCTENKEDGTVNIDQNRGEADVEIIENNDDEWEDEKSDVEEGRVDKGTEENSEIESFKSPMPQNNTLGGENKLDAELVLDKFSSANKDLDIQPQTIVVGGDNEYNHESSRLADQTPHDDNSENCPNRSGGSTPLDSQTKIFIPKKNSKEDGTNINHFNSDGDGQKKMANFETRRPTNPFRVISVSSNSNSRNGSRKSSLNKYDSPVSSPITSASELGSIAKLEKRHDYLSMKCIKLQKEIDYLNKMNAQGSLSMEDGKRLHRAVVKLQEYLDKKTKEKYEVGVLLSRHLRKQIDRGENGQFWIGTK
B3: Nub-Nop4 (protein, UniProt P37838 1-685)
chain: MEETIENVEVPSSNVSKQNDDGLDMKTLFVRSIPQDVTDEQLADFFSNFAPIKHAVVVKDTNKRSRGFGFVSFAVEDDTKEALAKARKTKFNGHILRVDIAKRRDRSKKTSEVVEKSTPESSEKITGQNNEDEDDADGEDSMLKGKPKLIIRNMPWSCRDPVKLKKIFGRYGTVVEATIPRKRDGKLCGFAFVTMKKISNCRIALENTKDLKIDGRKVAVDFAVQKNRWEDYKKAQPEMNDKDDNESGNEDAEENHDDEEDENEEEDRQVDQASKNKESKRKAQNKREDFSVFVRNVPYDATEESLAPHFSKFGSVKYALPVIDKSTGLAKGTAFVAFKDQYTYNECIKNAPAAGSTSLLIGDDVMPEYVYEGRVLSITPTLVREDAGRMAEKNAAKRKEALGKAPGEKDRRNLYLLNEGRVVEGSKMADLLTNTDMEIREKSYKLRVEQLKKNPSLHLSMTRLAIRNLPRAMNDKALKALARKAVVEFATEVKNKERHPLSKEEIIRSTKEKYKFMGPDEIEAQKKKDKKSGVVKQAKVIMEVKGSTAGRSRGYGFVEFRDHKNALMGLRWLNCHAVTSDEILEGLNDDEKKQVDNDLGKGRRLCVEFAIENSNVVKRRREQLKQARTKRTRPDNEDTGDVGESENKKPKKEEATTPTNPDDKKMGDDIKRIIGFKRKRKHAKK

The experiment deals with T1, Shs1-CCG (S. cerevisiae) (UniProt Q07657).
T1 sequence: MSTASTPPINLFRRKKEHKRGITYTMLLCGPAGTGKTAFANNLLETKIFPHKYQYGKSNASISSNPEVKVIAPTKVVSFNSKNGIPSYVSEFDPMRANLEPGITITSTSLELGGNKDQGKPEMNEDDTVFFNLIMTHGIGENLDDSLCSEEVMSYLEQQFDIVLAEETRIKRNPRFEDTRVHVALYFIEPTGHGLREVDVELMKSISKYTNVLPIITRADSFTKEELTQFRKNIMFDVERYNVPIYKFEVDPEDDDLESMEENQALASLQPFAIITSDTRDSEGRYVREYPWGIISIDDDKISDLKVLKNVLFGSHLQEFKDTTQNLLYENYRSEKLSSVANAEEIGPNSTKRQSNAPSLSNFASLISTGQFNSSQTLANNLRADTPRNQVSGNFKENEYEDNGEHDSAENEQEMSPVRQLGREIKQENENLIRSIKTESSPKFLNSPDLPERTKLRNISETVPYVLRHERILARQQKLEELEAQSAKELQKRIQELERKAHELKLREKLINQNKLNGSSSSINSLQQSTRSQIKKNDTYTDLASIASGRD
Nature of the experiment: split reporter; steady-state SPLIFF (split-ubiquitin, mCherry-Cub-GFP): diploid cells with Shs1-CCG and a Nub fusion, 100 μM Cu2+, GFP/mCherry ratio at the bud neck; strong > 70%, weak > 30%, below 30% CCG to CC conversion non-interacting.
For Nub-New1 (from UniProt Q08972 1-1196), the binding entry is listed as “binds”. Regarding Nub-Sic1 (from UniProt P38634 1-284), the binding result is given as “no binding”. Next, Nub-Glc7 (from UniProt P32598 1-312): “no binding”.

As for B1, the binding entry was “binds”.

Consider B2, for which the binding entry was “binds”. Then B3, with “binds weakly”.
